Experimental data reported in the supplement of paper PMC4604168 (melanoma cell lines).
This is one part of the list. Many values rest on one well or one pass, so single values are uncertain.

Key:
Test in all cases: cell count relative to DMSO control; melanoma cells; higher = more viable cells
Details in all cases: library dose: standard library concentration; 72 h
G361 = test system: G361
IPC-298 = test system: IPC-298
IST-MEL1 = test system: IST-MEL1
LB2518-MEL = test system: LB2518-MEL
LOXIMVI = test system: LOXIMVI
MEL-HO = test system: MEL-HO
MZ2-MEL = test system: MZ2-MEL
MeWo = test system: MeWo
RPMI7951 = test system: RPMI7951
RVH-421 = test system: RVH-421
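Also: cells treated in 1,536-well plates, then fixed and DAPI-stained, with nuclei counted from automated high-throughput microscope images.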

Structure (SMILES)	cell count (G361)	cell count (IPC-298)	cell count (IST-MEL1)	cell count (LB2518-MEL)	cell count (LOXIMVI)	cell count (MEL-HO)	cell count (MZ2-MEL)	cell count (MeWo)	cell count (RPMI7951)	cell count (RVH-421)
Cc1nc(Nc2ncc(C(=O)Nc3c(C)cccc3Cl)s2)cc(N2CCN(CCO)CC2)n1 [dasatanib] + COc1cc(N2CCC(N3CCN(C)CC3)CC2)ccc1Nc1ncc(Cl)c(Nc2ccccc2S(=O)(=O)C(C)C)n1 [NVP-TAE684] (first compound 0.02 µM, partner dose 0.4 µM)	58.9%	71.5%	51.4%	71.1%	8.65%	69.6%	30.9%	62.1%	25.1%	35.1%
CO[C@@H]1[C@H](N(C)C(=O)c2ccccc2)C[C@H]2O[C@]1(C)n1c3ccccc3c3c4c(c5c6ccccc6n2c5c31)C(=O)NC4 [Midostaurin] + Cn1cncc1[C@@](N)(c1ccc(Cl)cc1)c1ccc2c(c1)c(-c1cccc(Cl)c1)cc(=O)n2C [tipifarnib] (first compound 0.4 µM, partner dose 0.05 µM)	42%	46.2%	63.1%	65.2%	51.7%	69.9%	52.3%	70.6%	41.2%	71%
NCC(=O)Nc1ccc(-n2nc(C(F)(F)F)cc2-c2ccc3c(ccc4ccccc43)c2)cc1 + Cc1cc([N+](=O)[O-])ccc1NS(=O)(=O)c1cc(Cl)ccc1Cl [FH535] (first compound 5 µM, partner dose 5 µM)	47.1%	43.1%	58.1%	49%	108%	54.3%	70.8%	85.2%	91%	67%
CN(C)S(=O)(=O)c1ccc2c(c1)/C(=C/c1cc3c([nH]1)CCCC3)C(=O)N2 + CCN(CC)CCCCNc1ncc2cc(-c3cc(OC)cc(OC)c3)c(NC(=O)NC(C)(C)C)nc2n1 [PD173074] (first compound 2 µM, partner dose 0.5 µM)	68.3%	61.7%	80.4%	62.3%	81.8%	87.3%	74.3%	79.8%	55.9%	73.2%
C=CCn1c(=O)c2cnc(Nc3ccc(N4CCN(C)CC4)cc3)nc2n1-c1cccc(C(C)(C)O)n1 + CC(C)(C)c1cnc(CSc2cnc(NC(=O)C3CCNCC3)s2)o1 [SNS-032] (first compound 0.1 µM, partner dose 0.05 µM)	84.4%	108%	85.5%	62.7%	74.5%	86.1%	106%	70.7%	49.6%	61.1%
CO[C@@H]1[C@H](N(C)C(=O)c2ccccc2)C[C@H]2O[C@]1(C)n1c3ccccc3c3c4c(c5c6ccccc6n2c5c31)C(=O)NC4 [Midostaurin] + CCN(CC)CCCCNc1ncc2cc(-c3cc(OC)cc(OC)c3)c(NC(=O)NC(C)(C)C)nc2n1 [PD173074] (first compound 0.4 µM, partner dose 0.5 µM)	65.9%	56.8%	8.33%	51.7%	49.5%	75.4%	47.9%	81%	59.6%	23.8%
Cc1nc(Nc2ncc(C(=O)Nc3c(C)cccc3Cl)s2)cc(N2CCN(CCO)CC2)n1 [dasatanib] + COCC[n+]1c2c(n(Cc3cnccn3)c1C)C(=O)c1ccccc1C2=O [YM155] (first compound 0.02 µM, partner dose 0.002 µM)	79.2%	38.6%	43.7%	23.3%	17.6%	65.4%	18.6%	40.7%	20.8%	60.3%
OCCn1cc(-c2cnc3nnn(Cc4ccc5ncccc5c4)c3n2)cn1 + COc1ccc(-c2ccc3c(N4CCOCC4)nc(N4C[C@@H](C)O[C@@H](C)C4)nc3n2)cc1CO [KU0063794] (first compound 5 µM, partner dose 0.1 µM)	68.9%	60.8%	101%	84.9%	45.3%	73.2%	62.9%	70.1%	53.4%	104%
CN(C)S(=O)(=O)c1ccc2c(c1)/C(=C/c1cc3c([nH]1)CCCC3)C(=O)N2 + O=C(Nc1ccccc1)c1cc([N+](=O)[O-])ccc1Cl [GW9662] (first compound 2 µM, partner dose 10 µM)	63.2%	51.5%	74.9%	59.5%	74.4%	71.1%	51.5%	53.8%	34.8%	82.2%
NCC(=O)Nc1ccc(-n2nc(C(F)(F)F)cc2-c2ccc3c(ccc4ccccc43)c2)cc1 + O=C1NC(=O)/C(=C/c2ccc(-c3ccc(F)cc3O)o2)S1 [AS252424] (first compound 5 µM, partner dose 5 µM)	75.2%	52.2%	84.2%	96.3%	75.8%	74.8%	79.6%	87%	76.2%	70.7%
CN(C)S(=O)(=O)c1ccc2c(c1)/C(=C/c1cc3c([nH]1)CCCC3)C(=O)N2 + c1cc(-c2cnn3cc(-c4ccc(OCCN5CCCCC5)cc4)cnc23)ccn1 [Dorsomorphin] (first compound 2 µM, partner dose 2 µM)	45.3%	57.8%	75.7%	65%	117%	79.7%	60.2%	54.4%	38.7%	74.4%
OCCn1cc(-c2cnc3nnn(Cc4ccc5ncccc5c4)c3n2)cn1 + Oc1cc(-c2nc(-c3ccccc3)[nH]c2-c2ccncc2)ccc1Cl [L779450] (first compound 5 µM, partner dose 1 µM)	65.3%	105%	85.1%	102%	102%	91.3%	129%	86.8%	53.5%	80.8%
CO[C@@H]1[C@H](N(C)C(=O)c2ccccc2)C[C@H]2O[C@]1(C)n1c3ccccc3c3c4c(c5c6ccccc6n2c5c31)C(=O)NC4 [Midostaurin] + Cc1cc(N2CCOCC2)cc2[nH]c(-c3c(NC[C@@H](O)c4cccc(Cl)c4)cc[nH]c3=O)nc12 [BMS536924] (first compound 0.4 µM, partner dose 1 µM)	56.4%	70.1%	70.2%	46.1%	72.3%	77.9%	85.6%	56.2%	55.2%	68.8%
NC(=O)Nc1cc(-c2cccc(F)c2)sc1C(=O)N[C@H]1CCCNC1 + Oc1cc(-c2nc(-c3ccccc3)[nH]c2-c2ccncc2)ccc1Cl [L779450] (first compound 0.1 µM, partner dose 1 µM)	82.5%	82.9%	92.1%	52.1%	107%	58%	88.9%	92.4%	34.5%	89.9%
Cc1nc(Nc2ncc(C(=O)Nc3c(C)cccc3Cl)s2)cc(N2CCN(CCO)CC2)n1 [dasatanib] + OCCn1cc(-c2cnc3nnn(Cc4ccc5ncccc5c4)c3n2)cn1 [PF04217903] (first compound 0.02 µM, partner dose 5 µM)	88.7%	120%	67.4%	95.1%	20.5%	87.4%	68%	89.7%	46.7%	63%
C[C@]1(c2nc3c(C(N)=O)cccc3[nH]2)CCCN1 [Veliparib] + COc1cc(Nc2ncc(F)c(Nc3ccc4c(n3)NC(=O)C(C)(C)O4)n2)cc(OC)c1OC [Tamatinib] (first compound 7 µM, partner dose 2 µM)	60.3%	85.9%	62.5%	75.3%	35.1%	65%	80.3%	73.3%	40.9%	97.1%
